Measured values reported in PMC4336329 (PLoS ONE, 2015).
The whole screen tested about 310,000 compounds, of which about 14,000 (4.5%) showed an effect of 50% or more. Effects have a minus sign here. Some of the results follow.

target: human ether-à-go-go-related gene (hERG) potassium channel (human, UniProt Q12809); experiment: primary screen, population patch clamp on CHO cells stably expressing hERG
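Further: peak tail current of the secondary pulse compared with the same well before compound.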

Sequence of human ether-à-go-go-related gene (hERG) potassium channel (Q12809 whole entry, looked up): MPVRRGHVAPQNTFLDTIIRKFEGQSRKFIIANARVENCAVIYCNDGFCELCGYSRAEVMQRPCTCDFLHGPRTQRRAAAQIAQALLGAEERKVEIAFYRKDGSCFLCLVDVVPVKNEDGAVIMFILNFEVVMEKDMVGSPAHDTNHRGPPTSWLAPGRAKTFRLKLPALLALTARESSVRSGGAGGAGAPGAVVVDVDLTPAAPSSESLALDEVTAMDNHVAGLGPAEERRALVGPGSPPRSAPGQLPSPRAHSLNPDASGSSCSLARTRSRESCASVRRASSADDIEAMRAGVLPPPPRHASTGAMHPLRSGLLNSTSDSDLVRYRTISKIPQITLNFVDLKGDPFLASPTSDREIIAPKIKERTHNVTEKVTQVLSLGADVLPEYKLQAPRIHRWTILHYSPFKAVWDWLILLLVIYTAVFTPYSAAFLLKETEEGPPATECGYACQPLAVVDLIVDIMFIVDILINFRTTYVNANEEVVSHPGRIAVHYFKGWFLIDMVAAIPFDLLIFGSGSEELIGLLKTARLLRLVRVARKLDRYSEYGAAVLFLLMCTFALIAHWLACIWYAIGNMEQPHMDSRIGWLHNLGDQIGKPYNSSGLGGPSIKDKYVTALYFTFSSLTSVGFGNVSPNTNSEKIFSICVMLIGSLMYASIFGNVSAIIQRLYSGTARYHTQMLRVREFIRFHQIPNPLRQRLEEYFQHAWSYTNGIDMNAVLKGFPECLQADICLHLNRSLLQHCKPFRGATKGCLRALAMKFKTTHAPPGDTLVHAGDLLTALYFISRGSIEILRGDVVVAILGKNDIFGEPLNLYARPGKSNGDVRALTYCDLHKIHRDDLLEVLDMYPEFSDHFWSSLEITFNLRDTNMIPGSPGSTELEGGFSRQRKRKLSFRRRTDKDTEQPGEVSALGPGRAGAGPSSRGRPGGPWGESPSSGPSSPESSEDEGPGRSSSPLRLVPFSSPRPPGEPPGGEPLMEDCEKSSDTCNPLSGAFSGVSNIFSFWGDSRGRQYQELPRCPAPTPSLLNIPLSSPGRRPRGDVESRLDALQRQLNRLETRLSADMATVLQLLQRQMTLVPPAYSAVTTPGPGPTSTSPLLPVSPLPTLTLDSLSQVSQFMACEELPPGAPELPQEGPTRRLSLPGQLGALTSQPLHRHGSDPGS

Structure (SMILES)	hERG current change (%, negative = inhibition) at 10uM
Cc1ccc(NC(=O)CN(C)C(=O)c2cccc(S(=O)(=O)NCc3cccs3)c2)cc1	-18.5%
CCOC1Cc2ccccc2N(C(N)=O)c2ccccc21 (stereo not drawn)	13.5%
Cc1nnsc1C(=O)Nc1cc(Cl)ccc1Cl	9.8%
CN1CCN(CC(O)COCc2ccc3c(c2)OCO3)CC1.Cl (stereo not drawn)	6.52%
CC1CCN(C(=O)CN(c2ccc(Cl)c(C(F)(F)F)c2)S(C)(=O)=O)CC1	-5.67%
COc1ccc(-c2nc3ccccc3n2Cc2ccc(C)cc2)cc1	-6.29%
Cc1ccc2[nH]c3c(=O)n(Cc4ccccn4)cnc3c2c1	-1.6%
CCN(CC)C(=S)SC1CCCCN(C(=O)c2ccccc2)C1=O (stereo not drawn)	-9.24%
Cc1ccc2nc(C)c(C(=O)NN=C3CCN(C)CC3)n2c1	12.1%
Cc1ccc(CCNC(=O)C2CCN(S(=O)(=O)c3c(C)nn(C)c3C)CC2)cc1	-3.06%
CN(CC(=O)Nc1ccc(Cl)c(C(F)(F)F)c1)C(=O)C1CCC1	-14.8%
CC(C)C(=O)NN1c2ccccc2CCc2ccccc21	-7.49%
COc1cccc(/C=N/Nc2ncc(C)c(=O)[nH]2)c1OC	-3.72%
Cc1cc(NC(=O)c2ccc(NC(=O)C3CC3)cc2)no1	20.8%
CCCC[n+]1ccn(-c2nc3ccccc3nc2[N-]S(=O)(=O)c2cccs2)c1	-10.2%
C=C(C)COc1ccc2c(C)c(CCC(=O)NC3CC3)c(=O)oc2c1	-2.92%
CCOC(=O)c1sc(=S)n(CC)c1NC(=O)c1ccccc1C	12.5%
CC1CN(C(=O)/C=C/c2ccc(SC(F)F)cc2)CC(C)O1 (stereo not drawn)	-59.6%
NS(=O)(=O)c1ccc(O)c(NC(=O)c2ccc([N+](=O)[O-])cc2)c1	13.3%

Structure (SMILES)	hERG current change (%, negative = inhibition) at 10uM
Cc1cc(-n2cc(Br)c(=O)[nH]c2=O)nc(-c2ccccc2)n1	-1.85%
O=C(CSc1ncc(S(=O)(=O)c2ccccc2)c(=O)[nH]1)Nc1ccccc1Cl	4.77%
COc1ccc(OC)c(S(=O)(=O)n2nnc3ccccc32)c1	-24.9%
COc1ccc(-c2csc3ncnc(N4CCN(S(=O)(=O)c5cccc(Br)c5)CC4)c23)cc1	17%
CCCC(=O)NCCCc1nc2ccccc2n1C	-1.95%
COC(=O)N=Nc1c(O)[nH]c2ccc(Br)cc12	-5.68%
COC(=O)c1cc2ccsc2n1Cc1nc(-c2ccc(Cl)cc2)oc1C	7.33%
Cc1nc(Cl)c(Cl)n1CCOc1ccccc1	-6.44%
CCOC(=O)CSc1nnc(CNC(=O)c2ccc(S(=O)(=O)N3CCCC3)cc2)n1C	18.5%
CSc1ccc(CN(C)Cc2nc3cc(C(F)(F)F)ccc3c(=O)[nH]2)cc1	12.9%
Cc1ccc(NC(=O)CN2C(=O)NC(C)(c3ccc(Cl)cc3)C2=O)c(Br)c1 (stereo not drawn)	-0.775%
Cc1c(C)c2ccc(OCC(=O)c3ccccc3)cc2oc1=O	31.2%
Clc1ccc(OCc2nn3c(C4CCCCC4)nnc3s2)cc1	-14.9%
O=[N+]([O-])c1cccc(-c2csc(N/N=C/c3cccc(O)c3)n2)c1	6.76%
O=C(NCCc1c[nH]c2ccccc12)c1cc2ccccc2oc1=O	-0.59%
NC(=O)COC(=O)C1CSC2(c3ccc(F)cc3)CCC(=O)N12 (stereo not drawn)	9.89%
COc1ccc(CN2CCNC(=O)C2CC(=O)NC2CCCCCC2)c(F)c1 (stereo not drawn)	-20.2%
CC(=O)Nc1ccc(-c2ccc(NC(C)=O)c(O)c2)cc1O	12.7%
O=C(COc1ccccc1)Nc1ccccc1C(=O)NCc1ccco1	-6.63%

Structure (SMILES)	hERG current change (%, negative = inhibition) at 10uM
COC(=O)c1ccc(CSc2nc3ccccc3s2)o1	-9.12%
CCS(=O)(=O)N1CCC(C(=O)OCC(=O)c2ccc(Br)cc2)CC1	3.45%
CC(NC(=O)C1CCC1)c1ccc2c(c1)OCO2 (stereo not drawn)	-5.51%
O=C(COC(=O)c1ccc(CNS(=O)(=O)c2ccc(F)c(Cl)c2)cc1)NC1CCCCCCC1	9.59%
CC(=O)Nc1ccc(S(=O)(=O)N(C)CC(=O)OCC(=O)N2CC(C)OC(C)C2)cc1 (stereo not drawn)	3.96%
CCOC(=O)C[N+](C)(C)CCOC1CC2CCC1(C)C2(C)C.[Cl-] (stereo not drawn)	10.3%
Cc1ccc(NC(=O)CSc2nnc(CNC(=O)c3ccccc3F)o2)cc1	2.03%
Cc1cc(C)nc(SCC(=O)Nc2ccc(N3CCOCC3)c(Cl)c2)n1	-20.2%
COc1ccc(/C=C/C(=O)Nc2ccccc2C)cc1S(=O)(=O)N1CCOCC1	-45.3%
CC(C)NC(=O)CCS(=O)(=O)c1cccc2nonc12	-2.08%
CCOc1ccc(NS(=O)(=O)c2ccc3c(c2)N(C(C)=O)CCO3)cc1	4.72%
O=C(CSc1cccc[n+]1[O-])c1cc(Cl)ccc1Cl	25.9%
CCOc1ccc(NC(=O)C2CCN(C(=O)C3CC(=O)N(c4ccc(C)cc4)C3)CC2)cc1 (stereo not drawn)	-22.1%
CCCc1cc(=O)oc2cc(C)cc(OCC(=O)Nc3ccc(S(N)(=O)=O)cc3)c12	22%
O=C(NCc1ccc(C(F)(F)F)cc1)C1CC(c2ccccc2[N+](=O)[O-])=NO1 (stereo not drawn)	-46.1%
FC(F)Oc1ccccc1NC(=S)Nc1cccc(Cl)c1Cl	-4.74%
CCOc1ccc(-n2c(=O)cc(N3CCN(c4ccccc4)CC3)[nH]c2=O)cc1	3.96%
O=C(Nc1nnc(-c2ccccc2)o1)c1cc(-c2cccs2)nc2ccccc12	2.29%
Cc1ccc(Oc2coc3cc(OC(=O)c4cccs4)ccc3c2=O)cc1	-2.04%
